In experiment [1] the target is T1, Flag-tagged SLMAP (wildtype, in cells) (human) (UniProt Q14BN4).
T1 sequence: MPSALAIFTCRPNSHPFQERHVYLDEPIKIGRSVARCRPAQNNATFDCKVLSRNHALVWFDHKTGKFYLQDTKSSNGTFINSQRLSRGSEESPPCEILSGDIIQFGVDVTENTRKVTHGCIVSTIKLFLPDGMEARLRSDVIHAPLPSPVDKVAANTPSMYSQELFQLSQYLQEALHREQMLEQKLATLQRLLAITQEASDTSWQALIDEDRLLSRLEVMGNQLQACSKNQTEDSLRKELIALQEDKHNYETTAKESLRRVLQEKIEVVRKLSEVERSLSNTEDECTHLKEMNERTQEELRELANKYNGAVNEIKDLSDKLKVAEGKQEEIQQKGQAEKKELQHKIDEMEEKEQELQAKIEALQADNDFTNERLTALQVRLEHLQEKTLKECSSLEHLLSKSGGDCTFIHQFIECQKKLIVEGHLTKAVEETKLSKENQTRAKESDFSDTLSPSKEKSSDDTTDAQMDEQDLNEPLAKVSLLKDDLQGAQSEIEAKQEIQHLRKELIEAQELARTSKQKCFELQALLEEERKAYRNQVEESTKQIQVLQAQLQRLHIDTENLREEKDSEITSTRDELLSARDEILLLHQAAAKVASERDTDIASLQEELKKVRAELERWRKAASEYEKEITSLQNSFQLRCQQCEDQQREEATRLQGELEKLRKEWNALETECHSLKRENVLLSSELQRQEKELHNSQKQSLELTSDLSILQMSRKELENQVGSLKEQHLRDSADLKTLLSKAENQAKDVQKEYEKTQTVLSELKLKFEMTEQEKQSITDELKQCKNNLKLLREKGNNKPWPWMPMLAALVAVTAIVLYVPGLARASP
The experiment can be described thus: co-IP; HEK293FT cells transfected with tagged plasmids, lysed 24 h later in RIPA buffer; immunoprecipitation with indicated antibodies and Protein A/G beads; immunoblot. On the technique in general: Immunoblotting shows a protein as a band on a membrane.

The target of experiment [2] is T2, MBP-tagged STRN3 fragment (residues 64–341) (human) (UniProt Q13033).
T2 sequence: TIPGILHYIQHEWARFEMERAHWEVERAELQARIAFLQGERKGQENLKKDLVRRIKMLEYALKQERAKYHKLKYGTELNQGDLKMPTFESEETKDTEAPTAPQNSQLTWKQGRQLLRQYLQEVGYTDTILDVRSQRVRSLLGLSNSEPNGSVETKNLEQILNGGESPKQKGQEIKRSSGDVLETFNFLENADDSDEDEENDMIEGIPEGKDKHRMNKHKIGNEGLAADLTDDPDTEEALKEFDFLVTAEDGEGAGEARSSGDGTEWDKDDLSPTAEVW
Description: pull-down; MBP pulldown: MBP-tagged protein, partner and amylose resin mixed at 4 °C for 1 h in 20 mM HEPES (pH 7.5), 100 mM NaCl; eluted with 20 mM maltose; SDS-PAGE, Coomassie staining; both purified.

The target of experiment [3] is T3, Flag-tagged STRN3 (wildtype, in cells) (human) (UniProt Q13033).
T3 sequence: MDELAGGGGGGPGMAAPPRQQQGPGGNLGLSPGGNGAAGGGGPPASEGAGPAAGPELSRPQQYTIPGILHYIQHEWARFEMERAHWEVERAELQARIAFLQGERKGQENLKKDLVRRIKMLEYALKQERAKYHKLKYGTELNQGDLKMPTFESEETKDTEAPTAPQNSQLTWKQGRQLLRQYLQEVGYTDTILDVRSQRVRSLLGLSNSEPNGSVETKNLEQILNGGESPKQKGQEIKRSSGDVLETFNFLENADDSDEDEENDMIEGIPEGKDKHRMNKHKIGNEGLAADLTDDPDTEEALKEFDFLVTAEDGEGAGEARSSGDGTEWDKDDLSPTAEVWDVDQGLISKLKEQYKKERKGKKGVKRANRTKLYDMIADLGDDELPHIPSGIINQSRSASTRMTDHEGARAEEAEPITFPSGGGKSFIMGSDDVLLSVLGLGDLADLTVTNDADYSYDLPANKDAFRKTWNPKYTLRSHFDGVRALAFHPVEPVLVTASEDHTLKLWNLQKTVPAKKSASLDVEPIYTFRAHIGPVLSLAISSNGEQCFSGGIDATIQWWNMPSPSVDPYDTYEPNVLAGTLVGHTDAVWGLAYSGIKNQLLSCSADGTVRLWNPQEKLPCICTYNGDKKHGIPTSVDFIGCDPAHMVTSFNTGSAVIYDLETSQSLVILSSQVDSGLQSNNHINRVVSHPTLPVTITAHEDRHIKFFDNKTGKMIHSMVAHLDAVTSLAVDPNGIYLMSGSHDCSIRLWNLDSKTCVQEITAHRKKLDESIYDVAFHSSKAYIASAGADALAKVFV
Description: co-IP; HEK293FT cells transfected with tagged plasmids, lysed 24 h later in RIPA buffer; immunoprecipitation with indicated antibodies and Protein A/G beads; immunoblot.

Experiment [4] deals with T4, MST1 (endogenous) (human (endogenous in HEK293FT)) (UniProt Q13043).
T4 sequence: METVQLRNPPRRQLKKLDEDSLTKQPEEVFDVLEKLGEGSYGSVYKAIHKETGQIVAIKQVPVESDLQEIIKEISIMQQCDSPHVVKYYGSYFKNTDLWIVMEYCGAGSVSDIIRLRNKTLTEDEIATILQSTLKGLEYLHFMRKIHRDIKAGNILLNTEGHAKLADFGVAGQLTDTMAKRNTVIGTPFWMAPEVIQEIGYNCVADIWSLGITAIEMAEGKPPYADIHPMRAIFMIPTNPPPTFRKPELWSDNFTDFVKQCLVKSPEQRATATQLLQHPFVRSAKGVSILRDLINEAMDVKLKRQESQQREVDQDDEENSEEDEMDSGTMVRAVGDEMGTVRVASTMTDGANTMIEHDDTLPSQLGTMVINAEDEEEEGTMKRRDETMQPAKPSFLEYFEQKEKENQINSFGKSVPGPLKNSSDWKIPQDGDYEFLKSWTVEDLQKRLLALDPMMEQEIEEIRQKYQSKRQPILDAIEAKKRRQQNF
The experiment can be described thus: co-IP; endogenous proteins, HEK293FT cells at high (80%) and low (10%) cell density; immunoprecipitation of STRN3 or MST1; immunoblot.

Changes are numbered by the printed parent chain. In names and notes the source's numbering stands. These are yes or no findings as the source states them, for the method shown. For some assays here: Binding seen in cells or lysates may run through a third protein. Some results given as binding are weak or reduced against the parent protein; the word gives no strength. For some assays here: Sequences can lack the tags named with a protein.

B1: HA-tagged SIKE1 Δ1–48 (protein, UniProt Q9BRV8)
chain: ALPDQYQEDASDMKDMSKYKPHILLSQENTQIRDLQQENRELWISLEEHQDALELIMSKYRKQMLQLMVAKKAVDAEPVLKAHQSHSAEIESQIDRICEMGEVMRKAVQVDDDQFCKIQEKLAQLELENKELRELLSISSESLQARKENSMDTASQAIK
As for B1, the binding entry in experiment [1] is given as “no binding”.

B2: coiled-coil region (residues 161–800) of SLMAP (domain or fragment, UniProt Q14BN4 161-800)
chain: YSQELFQLSQYLQEALHREQMLEQKLATLQRLLAITQEASDTSWQALIDEDRLLSRLEVMGNQLQACSKNQTEDSLRKELIALQEDKHNYETTAKESLRRVLQEKIEVVRKLSEVERSLSNTEDECTHLKEMNERTQEELRELANKYNGAVNEIKDLSDKLKVAEGKQEEIQQKGQAEKKELQHKIDEMEEKEQELQAKIEALQADNDFTNERLTALQVRLEHLQEKTLKECSSLEHLLSKSGGDCTFIHQFIECQKKLIVEGHLTKAVEETKLSKENQTRAKESDFSDTLSPSKEKSSDDTTDAQMDEQDLNEPLAKVSLLKDDLQGAQSEIEAKQEIQHLRKELIEAQELARTSKQKCFELQALLEEERKAYRNQVEESTKQIQVLQAQLQRLHIDTENLREEKDSEITSTRDELLSARDEILLLHQAAAKVASERDTDIASLQEELKKVRAELERWRKAASEYEKEITSLQNSFQLRCQQCEDQQREEATRLQGELEKLRKEWNALETECHSLKRENVLLSSELQRQEKELHNSQKQSLELTSDLSILQMSRKELENQVGSLKEQHLRDSADLKTLLSKAENQAKDVQKEYEKTQTVLSELKLKFEMTEQEKQSITDELKQCKNNLKLLREKGNNKP
With B2, the binding result in experiment [2] is “no binding”.

B3: HA-tagged SIKE1 Δ72–121 (protein, UniProt Q9BRV8)
chain: MSCTIEKILTDAKTLLERLREHDAAAESLVDQSAALHRRVAAMREAGTALPDQYQEDASDMKDMSKYKPHIVDAEPVLKAHQSHSAEIESQIDRICEMGEVMRKAVQVDDDQFCKIQEKLAQLELENKELRELLSISSESLQARKENSMDTASQAIK
As to B3, the binding result in experiment [3] is reported as “no binding”.

B4: HA-tagged SIKE1 E96A/R109A (protein, UniProt Q9BRV8 1-207)
chain: MSCTIEKILTDAKTLLERLREHDAAAESLVDQSAALHRRVAAMREAGTALPDQYQEDASDMKDMSKYKPHILLSQENTQIRDLQQENRELWISLEAHQDALELIMSKYAKQMLQLMVAKKAVDAEPVLKAHQSHSAEIESQIDRICEMGEVMRKAVQVDDDQFCKIQEKLAQLELENKELRELLSISSESLQARKENSMDTASQAIK
With B4, the binding entry in experiment [3] was “no binding”.

B5: HA-tagged SIKE1 A100D/M105E (protein, UniProt Q9BRV8 1-207)
chain: B4 chain with A96E, A100D, M105E, A109R
For B5, the binding result in experiment [3] is given as “no binding”.

B6: HA-tagged SIKE1 3LD (L15D/L19D/L36D) (protein, UniProt Q9BRV8 1-207)
chain: B4 chain with L15D, L19D, L36D, A96E, A109R
As for B6, the binding entry in experiment [1] is reported as “no binding”.

B7: SLMAP (endogenous) (protein, UniProt Q14BN4 1-828)
chain: T1 sequence
As for B7, the binding entry in experiment [4] was “binds”.

B8: STRN3 (endogenous) (protein, UniProt Q13033 1-797)
chain: T3 sequence
For the molecule B8, in experiment [4], the binding entry was “binds”.

For the origin of these results see article PMC6323126.
